Measurements: PubChem BioAssay AID686970 (National Center for Advancing Translational Sciences (NCATS), 2013)
Out of some 360,000 compounds screened, about 6,000 (1.7%) were called active. Inconclusive means that the source gave no clear call. Such entries were picked first, then a sample of the others. Calls come from the whole dose curve; as a rule, active = well fitted cell-killing curve with a large enough effect; inconclusive = small, poorly fitted or top-dose-only effect, or effect the other way; inactive = flat fitted curve, though single readings scatter. Potencies of inconclusive entries are left out as doubtful fits.

test: qHTS for induction of synthetic lethality in tumor cells producing 2HG: qHTS for the HT-1080-NT fibrosarcoma cell line; conditions: HT-1080-NT fibrosarcoma viability, CellTiter-Glo ATP luminescence, 48 h; activity, negative = less viability: at 46.1 µM (top of the series) unless noted;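 note: NT is the 2HG producing partner of a matched IDH1 knockdown line; nearly all actives have a fitted effect of over 55% in size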;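 for activity, negative = less viability: 0% = DMSO-treated cells and -100% = media-only wells without cells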
In short: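 Compounds were tested in concentration-response format on HT-1080-NT cells for 48 hours at 37 degrees C. Cell viability came from CellTiter-Glo luminescence; curves were classified by r2, response magnitude and activity.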
Potency is the fitted concentration of half-maximal effect; tags give direction and shape of the fitted curve.

| SMILES | activity, negative = less viability | Potency |
| --- | --- | --- |
| Cc1ccccc1OCCNC(=O)CSc1ccc(C(F)(F)F)cc1[N+](=O)[O-] | inactive: -13.3% |  |
| O=C(O)c1ccc2c(c1)OCCO2 |  | inconclusive [rising, partial curve] |
| COc1ccc2cc3c(N)nn(C(=O)c4ccccc4[N+](=O)[O-])c3nc2c1 | inactive: -26.5% |  |
| Cc1ccc2c(c1)c1c(n2CC(O)Cn2c(C)nc3ccccc32)/C(=N\O)CCC1 (stereo not drawn) |  | active: 20.6 µM |
| Cc1cc(C)c(C(=O)N2CCCC(N3CCN(c4cccc(C(F)(F)F)c4)CC3)C2)o1 (stereo not drawn) | inactive: -17.5% |  |
| NC(Cc1ccc(Cl)cc1)c1csc(Nc2ccc(C(=O)NCCCO)cn2)n1 (stereo not drawn) |  | active: 14.6 µM |
| Brc1ccc2ncnc(NCc3ccccc3)c2c1 |  | inconclusive [cytotoxic, partial curve] |
| COCc1cc(N2CCOCC2)nc(SCc2ccc(Cl)cc2)n1 | inactive: -7.27% |  |
| O=C1CC(/C=C/c2ccncc2)=Nc2ccccc2N1 |  | inconclusive [cytotoxic, single point] |
| Cc1nc(C)c(C(=O)NNS(=O)(=O)c2ccc3ccccc3c2)s1 | inconclusive: -30% [cytotoxic] |  |
| CC1CCN(S(=O)(=O)c2cccc(C(=O)N3CCN(c4ccc(F)cc4)CC3)c2)CC1 |  | inconclusive [cytotoxic, single point] |
| Cc1nn(-c2ccccc2)c(C)c1NC(=O)COC(=O)c1ccc(O)cc1O | inactive: 1.44% |  |
| CN(C)c1ccc(/C=N/NC(=O)c2ccc(-n3cnnn3)cc2)cc1 | inactive: -7.38% |  |
| CC(C)c1ccc(/C=N/NC(=O)C2CCCC2)cc1 | inactive: 7.03% |  |
| COc1cc(CNCc2c[nH]c3ccccc23)cc(OC)c1 |  | inconclusive [cytotoxic, single point] |
| CCC(=Nc1ccc(N)cc1)C1=C(O)C(C(=O)OC)C(C)(C)CC1=O (stereo not drawn) | inactive: 6.16% |  |
| Cc1c(C(=O)NCc2ccccc2CN2CCCC2)oc2ccccc12 |  | inconclusive [cytotoxic, single point] |
| CC(=O)C1=CCC(c2ccccc2)N(S(=O)(=O)c2ccc(Cl)cc2)C1 (stereo not drawn) |  | inconclusive [cytotoxic, single point] |
| COCCCNC(=S)NCCNc1nc2c(C)c(C)ccc2cc1C#N | inactive: -17.2% |  |
| CSc1ccc(CNCC2CCCO2)cc1 (stereo not drawn) | inactive: 0.0137% |  |
| COc1cc(CCC(C)=O)ccc1OC(=O)c1c(F)cccc1Cl | inactive: -21.8% |  |
| COc1ccc(C(=O)N2CCC(N3CCN(c4ccccc4)CC3)CC2)cc1OC | inactive: 21.2% |  |
| C=CCN(C(=O)CSc1nc2c(sc3ccccc32)c(=O)n1CCN(CC)CC)c1ccccc1 |  | inconclusive [cytotoxic, single point] |
